Our source for the inhibition values is PubChem BioAssay AID485344 (National Center for Advancing Translational Sciences (NCATS), 2010).

Among all 340,000 compounds or so, about 6,900 (2%) were called active. No stated cut-off is given here; in the data, active means inhibition above about 30%; inactive means below that, where a call was filed. The entries are a selection whose mix differs from that of the whole data set. Entries without a call were filed so in the source.

UniProt P14416, sequence (P14416 whole entry, looked up): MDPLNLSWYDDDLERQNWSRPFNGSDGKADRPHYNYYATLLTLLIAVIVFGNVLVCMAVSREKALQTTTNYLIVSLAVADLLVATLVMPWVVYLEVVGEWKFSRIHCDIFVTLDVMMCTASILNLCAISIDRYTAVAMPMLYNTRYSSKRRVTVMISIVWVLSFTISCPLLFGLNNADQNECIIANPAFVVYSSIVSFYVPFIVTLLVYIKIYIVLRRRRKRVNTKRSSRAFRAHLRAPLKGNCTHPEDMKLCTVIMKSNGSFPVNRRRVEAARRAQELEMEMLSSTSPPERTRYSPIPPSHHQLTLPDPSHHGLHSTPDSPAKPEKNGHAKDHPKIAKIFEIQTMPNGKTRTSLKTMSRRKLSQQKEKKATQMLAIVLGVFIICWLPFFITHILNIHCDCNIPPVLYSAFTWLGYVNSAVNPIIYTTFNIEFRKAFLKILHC

This test addresses D(2) dopamine receptor (Homo sapiens) (UniProt P14416). Kind of test: HTS Assay for Allosteric Antagonists of the Human D2 Dopamine Receptor: Primary Screen for Antagonists. Further: 0% is about no effect. To be noted: HEK293 TREx D2 cells, calcium flux, dopamine EC80; at 10 µM; stronger effect = higher value. The procedure, abridged:
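In this primary screen, negative modulation is detected by tracking calcium flux after an EC80 dopamine challenge in inducible HEK293 T-REx D2 cells preexposed to test compound for 180 s.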
For orientation: Calcium assays in cells follow changes in intracellular calcium, usually with a dye or a luminescent sensor.
The term inhibition denotes the relative decrease from the control value, in per cent. Regarding `CCn1cc(/C=C(\NC(=O)c2ccc(OC)cc2)C(=O)NCCCn2ccnc2)c2ccccc21`, the inhibition was found to be 9.57%.
Then `CCc1nn(CC(=O)NCCc2ccc(OC)cc2OC)c(=O)c2cc3occc3n12`, with 6.77%.
With `COc1cc2c(=O)n(CCC(=O)NCC3CCCO3)c(=O)n(CC(=O)Nc3ccccc3C)c2cc1OC` (stereo not given), the inhibition is -13.4%.
Then `Oc1ccc(CN2CCN(c3ncccn3)CC2)cc1`, with active: 84.3%; and `CCc1ccc(C(=O)c2cn(CC(=O)Nc3ccc4c(c3)OCCO4)c3ccc(F)cc3c2=O)cc1`, with 10.2%.
Then `Cc1ccc(NCc2cccn2-c2nnc(N3CCC(C(=O)NCCc4ccc(Cl)cc4)CC3)s2)cc1`, with 2.41%; and `CCCCN(CC)CCCNC(=O)c1c(C)oc2ncnc(N3CCOCC3)c12`, with -8.63%; and `COc1ccc(-n2c(C)nc3c(cnn3-c3ccc(F)cc3)c2=O)cc1`, with -7.88%.
Then `CN1CCCC(CC2Oc3ccccc3Sc3ccccc32)C1` (stereo not given), with active: 95.7%.
Turning to `CCc1nn2c(=O)cc(COC(=O)c3cccc(NC(=O)CCc4ccccc4)c3)nc2s1`, the inhibition is 13.7%.
For `COc1ccc(-n2ncc3c(NCCCOC(C)C)ncnc32)cc1`, the inhibition was 5.7%.
Then `CCc1nn(CC(=O)NC2CC2)c(=O)c2cc3c(OC)cccc3n12`, with 21.8%.
Then `CCCCNC(=O)C1CCCN(S(=O)(=O)CCC)C1` (stereo not given), with 22.7%; and `CCOc1ccccc1C1CC(=O)Nc2c1c(=O)n(C)c1ncnn21` (stereo not given), with 13.4%.
Turning to `O=C(CCc1nc(CN2CCN(S(=O)(=O)c3ccc(Br)cc3)CC2)no1)N1CCCCC1`, the inhibition was -2.36%.
On to `COc1cc2cc(CNc3ccccc3)c(=O)n(CC(=O)Nc3cccc(Cl)c3C)c2cc1OC`, for which the inhibition worked out at 9.48%.
Then `COc1cc(NC(=O)Cn2c(=O)n(CC3CCC(C(=O)NCCc4ccccc4)CC3)c(=O)c3ccccc32)cc(OC)c1` (stereo not given), with 8%; and `Cc1c(C(=O)NCc2ccc(Cl)cc2)oc2ccc3c(c12)C(=O)CC(C)(C)O3`, with 6.84%.
In the case of `CCCCOc1ccc(CNC(=O)c2cccc(NC(=O)N3CCSc4ncccc43)c2)cc1`, the inhibition was 0.86%.
For the compound `Cc1ccc(CNC(=O)CSc2ncc3c(n2)-c2cc(Cl)ccc2N(C)S3(=O)=O)cc1`, the inhibition stood at 10.4%.
For the compound `CCCCn1c(N)nc2ccccc21`, the inhibition was active: 30.7%.
Turning to `COc1cccc(Nc2nc(=O)[nH]nc2C)c1`, the inhibition was active: 34.2%.
On to `O=C(NCc1cccc(Cl)c1)c1c2c(nc3ccccc13)C(=O)N(C1CCCCC1)C2`, for which the inhibition was -6.77%.
Then `CC(=O)Nc1cccc(NC(=O)c2cc3c(=O)n4cccc(C)c4nc3n2C)c1`, with 19%; and `COc1cc(NC(=O)c2ccc(C)c(Cl)c2)ccc1NC(=O)c1cc2ccccc2o1`, with -3.81%; and `CCCn1cc(S(=O)(=O)c2ccc(C)cc2)c(=O)c2cc(F)c(N3CCCC3)cc21`, with -10.2%.
Then `CCOc1ccccc1Nc1ncnc2c1cnn2-c1ccc(C)cc1`, with -15.8%.
As for `COc1ccc(CC(=O)Nc2nc3c(s2)CC(C)CC3)cc1` (stereo not given), the inhibition was -7.94%.
`Cc1ccc(NC(=O)C2CCCN(S(=O)(=O)c3ccc4[nH]c(=O)ccc4c3)C2)cc1Cl` (stereo not given): the inhibition is -2.39%.
For `COc1ccc2c(c1)c1c(c(=O)n(CCc3ccccc3)c(=O)n1Cc1cccc(Cl)c1)n2C`, the inhibition came to 0.5%.
As for `CC1CCN(S(=O)(=O)c2ccc3c(c2)CCN3C(=O)Nc2ccccc2Br)CC1`, the inhibition is -1.83%.
Then `Fc1ccc(N2CCN(c3nc4ccccc4c4nc(-c5ccccc5)nn34)CC2)cc1`, with 18.5%; and `COc1ccc2c(c1)cc(CNc1ccc(OC)c(OC)c1)c(=O)n2CC(=O)Nc1ccccc1C`, with 0.571%.
`Cc1ccc(S(=O)(=O)Nc2cccc(-c3ccc(N4CCC(C)CC4)nn3)c2)s1`: the inhibition is -2.97%.
`COc1ccc(OCC(=O)Nc2ccc(-c3nc4cc(C)cc(C)c4o3)cc2)cc1`: the inhibition is 1.1%.
As for `COc1cccc2c1cc1c(=O)n(CC(=O)N3CCN(c4cccc(C)c4C)CC3)nc(C)n12`, the inhibition was -24.1%.
`CCOc1ccccc1Nc1nc2ccccc2c2nncn12`: the inhibition is 7.1%.
Then `CCOc1ccc(CNC(=O)c2ccc3oc(=O)n(Cc4ccccc4)c3c2)cc1`, with -0.479%; and `COc1ccc(CCNC(=O)CCc2c(C)nc3c4c(C)cc(C)nc4nn3c2C)cc1OC`, with -0.07%.
Then `Cc1ccc(CNC(=O)C2CCN(S(=O)(=O)N3CCCCC3)CC2)cc1`, with -7.94%; and `Cc1ccc(Cn2nnc3c(=O)[nH]c(C4CCN(C(=O)Cc5ccccc5F)CC4)nc32)cc1`, with 2.51%; and `CC(=O)c1c(C)oc2ccc(N(C(=O)Oc3ccccc3)S(=O)(=O)c3ccc(Cl)cc3)cc12`, with -16.7%.
Then `CCc1cccc(NS(=O)(=O)c2c(C)[nH]c(=O)[nH]c2=O)c1`, with 7.32%; and `Cc1c(Cl)cccc1-n1ncc(C(=O)N2CCN(c3ncccn3)CC2)c1C1CCN(C(=O)OC(C)(C)C)CC1`, with -0.593%; and `Cc1ccc(S(=O)(=O)N(CC(=O)Nc2cccnc2)c2cccc([N+](=O)[O-])c2)cc1`, with active: 50.2%.
On to `Cc1ccc(NC(=O)C(Cc2ccccc2)NS(=O)(=O)c2ccc3c(c2)c(=O)n(C)c(=O)n3C)c(C)c1` (stereo not given), for which the inhibition is 3.4%.
Consider `CCN(CC)c1ccc(NC(=O)c2cccn2-c2nnc(N3CCCCC3)s2)c(C)c1`, for which the inhibition came to 6.11%.
Take `COc1cc2c(cc1OC)CN(C(=O)CSc1ccc(F)cc1)CC2`: the inhibition is active: 61.3%.
For `CC(C)OC(=O)c1cccc(NC(=O)Cn2nnc3sc4c(c3c2=O)CCCC4)c1`, the inhibition worked out at 0.111%.
Regarding `Cc1ccc(-n2cc(-c3ccccc3)c3c(N4CCCCC4)ncnc32)cc1`, the inhibition is -1.59%.
With `Cc1cccc(Nc2nnc(-c3ccc(C)c(S(=O)(=O)N4CCCCC4)c3)c3ccccc23)c1`, the inhibition is -0.675%.
Then `Cc1ccc(-c2cc(C(=O)Nc3ccc(SC(F)F)cc3)no2)cc1F`, with 24.8%; and `CCCOc1ccc(CNC(=O)CCCn2ncn3c(cc4sc(CC)cc43)c2=O)cc1`, with 3.26%; and `COc1ccccc1CNC(=O)c1c[nH]c2ccc(S(=O)(=O)Nc3cc(C)cc(C)c3)cc2c1=O`, with -13.2%.
`CCCOc1ccc(NC(=O)CC2C(=O)N(c3ccccc3)C(=O)N2Cc2ccco2)cc1` (stereo not given): the inhibition is -11.6%.
Then `CCNS(=O)(=O)c1ccc(NC(=O)CSc2nc(-c3ccco3)cc(C(F)(F)F)n2)cc1`, with -1.67%; and `COc1cccc(NC(=O)CCC(=O)N2Cc3ccccc3Oc3ncccc32)c1`, with -7.4%.
For `Cc1ccc(-n2c3c(cc(C(=O)Nc4ccccc4C(N)=O)c2=O)C(=O)CC(C)(C)C3)cc1`, the inhibition was determined as 21.9%.
Turning to `CCOc1ccccc1NC(=O)c1c(NC(=O)COc2ccccc2)sc2c1CCCC2`, the inhibition came to 2.41%.
Regarding `Cc1cc(C)c(NC(=O)CSc2ccc(-c3ccccn3)nn2)c(C)c1`, the inhibition is 1.14%.
Then `CN(C)CCNC(=O)CN1C(=O)COc2ccc(S(=O)(=O)N3CCCC3)cc21`, with -4.47%; and `COc1ccc(C2=Nc3ccccc3NC(c3cccs3)=N2)cc1`, with 16.5%; and `Cc1ccc2nc(SCC(=O)NCC3CCCO3)c(C#N)cc2c1` (stereo not given), with active: 40.7%.
Consider `O=C1CC(c2ccccc2)Sc2ccccc2N1Cc1ccc(F)cc1` (stereo not given), for which the inhibition is -2%.
As to `CCOc1ccccc1/C=c1\sc2nc(-c3ccco3)nn2c1=O`, the inhibition is active: 33.5%.
Take `COc1ccc(NC(=O)CSc2nccn2Cc2ccc3c(c2)OCO3)cc1`: the inhibition was determined as 1.99%.
For `COc1ccc(C)cc1NC(=O)C(=O)NCC(c1cccnc1)N1CCc2ccccc21` (stereo not given), the inhibition is 8.93%.
On to `COCCc1nn2c(=O)cc(COC(=O)C(c3ccccc3)c3ccccc3)nc2s1`, for which the inhibition stood at 3.56%.
As to `CCc1ccc(NC(=O)CC2C(=O)N(c3cccc(C)c3)C(=O)N2Cc2ccc(F)cc2)cc1` (stereo not given), the inhibition was found to be 1.56%.
Then `Cc1cc(NC(=O)n2ncc3c(C)cccc32)ccc1Br`, with 6.34%; and `COc1cccc(CCNC(=O)c2c(O)nc3c(C)cccn3c2=O)c1`, with 1.53%.
Turning to `CC(Sc1nnc2ccc3ccccc3n12)C(=O)Nc1ccc(Cl)cc1` (stereo not given), the inhibition is -3.78%.
Then `COc1ccccc1NC(=O)Cn1c(SCC(=O)Nc2ccc(F)cc2)nc2ccccc21`, with -11.1%; and `Cc1nc2ccn(Cc3ccccc3)c(=O)c2cc1C(=O)N1CCN(c2ccc(F)cc2)CC1`, with -2.06%.
Then `Cc1ccc(NC(=O)Cc2ncc(C(F)(F)F)cc2Cl)cc1Cl`, with active: 43.9%.
As to `CN(CCN1CCc2ccccc2C1)Cc1nc(-c2ccc3c(c2)OCO3)no1`, the inhibition is active: 43.6%.
As to `CCc1ccc(NC(=O)CC2C(=O)N(c3cccc(OC)c3)C(=O)N2Cc2ccc(F)cc2)cc1` (stereo not given), the inhibition was determined as 5.59%.
In the case of `COc1cc(NC(=O)CCc2c(C)nn(-c3ccc(N4CCCCC4)nn3)c2C)cc(OC)c1OC`, the inhibition is -0.115%.
`O=C(C1CCN(S(=O)(=O)c2ccccc2)CC1)N1CCN(c2ccccc2F)CC1`: the inhibition was active: 32.1%.
With `COc1ccc(C)cc1NC(=O)c1cc(S(=O)(=O)N2CCCCC2)c[nH]1`, the inhibition turned out to be 9.78%.
As to `Cc1cc(C)cc(NC(=O)CCCc2nc(-c3ccco3)no2)c1`, the inhibition stood at 17.7%.
On to `CCN(CC)CCn1c(NCc2cccc(OC)c2)nc2ccccc21`, for which the inhibition was active: 44.4%.
Then `Cc1cc(-n2c(C)nc3ccccc3c2=O)ccc1NC(=O)c1ccccc1[N+](=O)[O-]`, with -23%; and `COc1ccc(-c2cc3nc(C4CCN(C(=O)OC(C)(C)C)CC4)c(C(=O)Nc4cc(C)cc(C)c4)cn3n2)cc1`, with 6.87%; and `CCC(Sc1nnc2c3ccccc3n(CC)c2n1)C(=O)Nc1nnc(C(C)C)s1` (stereo not given), with 2.46%.
`Cn1c(=O)cc(SCC(=O)N2CCN(c3ccccc3F)CC2)c2ccccc21`: the inhibition is -6.42%.
For `CCOc1ccc(NC(=O)CC2C(=O)N(c3cccc(C)c3)C(=O)N2Cc2cccs2)cc1` (stereo not given), the inhibition was -21.2%.
Take `CCCN1CCN(CCCNC(=O)c2ccc3nc(Cc4ccccc4)oc3c2)CC1`: the inhibition was -9.51%.
Take `CCCCN1CC(c2nc3ccccc3n2CCCCOc2cccc(C)c2C)CC1=O` (stereo not given): the inhibition is -16.4%.
As for `CCOc1ccc(CN(CCc2ccc3c(c2)OCO3)Cc2cc(OC)c(OC)cc2OC)cc1`, the inhibition stood at 15.1%.
`COC(=O)c1c(N)n(-c2ccc(OC)c(OC)c2)c2nc3ccccc3nc12`: the inhibition was -12.5%.
Regarding `Cc1ccc(CNC(=O)Cn2c(=O)n(-c3ccc(C)cc3)c(=O)c3c2c2cc(C)ccc2n3C)cc1`, the inhibition is -1.05%.
Regarding `COC(=O)c1cc2occc2n1CC(=O)Nc1ccc(N(C)C)cc1`, the inhibition is -0.876%.
Then `N#Cc1nc(-c2ccc(COc3ccccc3)o2)oc1N1CCCCC1`, with -0.971%.
Then `Cc1ccc(CNC(=O)C(=O)NCC(c2ccco2)S(=O)(=O)c2ccccc2)cc1` (stereo not given), with -3.12%.
